# Reference: the supplement of paper PMC3334620
# Over roughly 33,000 sequences, “E-score (-0.5 to 0.5)” has its median near -0.016; the highest 2% begin near 0.31. The list shows a part of the results.
# Molecular target: Cst6 (UniProt P40535)
# Test: PBM E-score (8-mer binding enrichment) (E-score (-0.5 to 0.5)); higher = stronger / more preferred TF binding; most listed sequences are background and not binding sites
# Conditions: protein concentration: 200 nM; construct: GST-DNA-binding domain
# Method in brief: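 Using PURExpress in vitro transcription/translation, GST-tagged yeast transcription factors were made in full-length or DNA-binding-domain form. These were applied at about 100-200 nM to double-stranded universal all-10-mer Agilent arrays, and bound protein was detected with fluorescent anti-GST. Scans were normalised with masliner before the Universal PBM Analysis Suite assigned E-scores to ungapped eight-base words pooled with their reverse complements.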
row,Sequence,PBM E-score
1,CGAAATCC,0.00971
2,TGGAGTAA,0.168
3,AACAGCCT,-0.126
4,ATCCTGAC,0.0527
5,GCCACCGA,-0.104
6,AGACCGAC,-0.12
7,AGCACTGA,-0.029
8,ACGTTATC,0.269
9,ACAAGCCC,-0.13
10,CCGGACCA,-0.206
11,ACTTGCGA,-0.0637
12,AAGTATAT,0.17
13,ATGGCGTC,0.311
14,AGCTTCCG,-0.0727
15,CCATGTCG,-0.0363
16,CGAATTAA,0.136
17,AAACGTGC,0.143
18,CCCATAAC,-0.065
19,AGTTTATA,0.22
20,ATCAGTAG,0.00344
21,ATCCGACC,-0.0828
22,ACTGCGCA,-0.101
23,AATTACTG,0.0926
24,ACCCCATC,-0.154
25,ACAGTTGA,-0.125
26,CATGGACC,-0.233
27,AGGTAAAG,0.122
28,CCTTGGAC,-0.23

row,Sequence,PBM E-score
1,CTTAGTGC,-0.0727
2,GGGGACAC,-0.323
3,AGCAAGCG,-0.11
4,GGCAGCCC,-0.402
5,CCATGTCA,0.134
6,GAAGGCAC,0.149
7,CCTGAACC,0.00416
8,GTATACAC,0.0838
9,AGCCGGAG,-0.0357
10,AGGATCGA,-0.182
11,ACAGGCAT,-0.0588
12,CCCGCTTC,-0.386
13,GTTAAAAA,0.22
14,ATCAATTC,0.101
15,ACCAGCCT,-0.213
16,GCTTGTCC,-0.157
17,CCAGCGAG,-0.21
18,CTTGGAAA,-0.0382
19,AGGAGGAT,-0.153
20,CACCGGGC,-0.265
21,GGGGGTGA,-0.16
22,AACCCACT,0.00057
23,AAGCCTAC,-0.0426
24,GTGTCCGA,-0.0583
25,AAGACCTT,0.0815
26,ATTCCGTC,0.159
27,TGTCCAAA,0.129
